Among the data in PubChem BioAssay AID463173 (ICCB-Longwood Screening Facility, Harvard Medical School, 2010) are survival values, retold here.

About 1,700 (3.3%) of roughly 52,000 compounds were called active. Rule as the data show it: active = survival mostly below about 52% (no sharp cut-off); inactive = mostly above about 56%. Some of the results follow.

In the experiment the test system is Wild type. Nature of the experiment: growth inhibition of S. aureus wild type versus tarO mutant, primary screen, teichoic acid synthesis inhibitors, RN4220, OD600 (AID 463173). The settings on record: S. aureus RN4220 wild type/DeltatarO growth, OD600, 18 h, stronger effect = lower value, screened at 18.75 µg/mL (by protocol).
Turning to `CC(C)CC(=O)Nc1nnc(S(=O)(=O)N(CC(C)C)c2ccccc2)s1`, the survival is inactive: 111%.

As for `O=C(Nc1ccc2oc(-c3cc(Br)ccc3Cl)nc2c1)c1cc2ccccc2o1`, the survival was inactive: 102%.

For the molecule `CCOc1ccccc1NC(=O)Cn1c(=O)n(CCC(=O)NCc2ccc3c(c2)OCO3)c(=O)c2ccccc21`, the survival was inactive: 153%. In the case of `COc1cc(OC)c(NC(=O)c2csc3c2CCC(C)C3)cc1Cl` (stereo not given) it was inactive: 129%; in that of `COc1ccccc1CNC(=O)c1cc2cc3ccc(Cl)cc3nc2o1`, inactive: 84%; in that of `COc1ccc(CCNC(=O)CCc2c(C)nc3c(c(C)nn3-c3ccc(C)c(C)c3)c2C)cc1OC`, inactive: 89%. With `CCc1ccccc1N1CC(c2nc3ccccc3n2CCCOc2ccc(Cl)cc2)CC1=O` (stereo not given) the figure was inactive: 29%; with `Cc1c(CNC2CCCCC2)c(C(=O)O)c(C)n1Cc1c(F)cccc1Cl`, inactive: 82%. For `Cc1ccc(NC(=O)CCCn2c(=O)c3cccn3c3ccccc32)c(Cl)c1`, the survival was inactive: 59%. With `COc1ccccc1N1CCN(c2ccc(NC(=O)c3ccc(C)cc3)cc2C(=O)O)CC1` the figure was inactive: 72%; with `CCC1(C)Cc2ccccc2-c2[nH]c(=S)[nH]c(=O)c21` (stereo not given), inactive: 111%; with `O=C(CCOc1ccccc1)N(Cc1cccnc1)c1nc2c(F)cc(F)cc2s1`, inactive: 99%.

Turning to `CCOc1ccc(NC(=O)C(CC)n2c(=O)c(-c3ccccc3NC(C)=O)nc3ccccc32)cc1` (stereo not given), the survival is inactive: 64%. With `COc1ccccc1OCCSc1nc(-c2ccc(C(C)(C)C)cc2)nc2cc(=O)[nH]n12` the figure was inactive: 22%. As for `Cc1ccc(CNC(=O)Cn2cc(S(=O)(=O)Cc3ccccc3Cl)c3ccccc32)cc1`, the survival was inactive: 66%. For the molecule `COc1ccc(C(=O)Nc2cc3c(cc2C(=O)c2ccccc2Cl)OCCO3)cc1`, the survival is inactive: 98%.

On to `O=C(CSC1=Nc2ccccc2C2=NC(CCC(=O)NC3CCCCC3)C(=O)N12)Nc1cccc(C(F)(F)F)c1` (stereo not given), for which the survival was inactive: 70%. Take `Cc1cc(Cl)ccc1NC(=O)c1cccc(NC(=O)N2CCSc3ncccc32)c1`: the survival was inactive: 76%. For the molecule `COc1cc(OC)c(NC(=O)N2CCSc3ccccc32)cc1Cl`, the survival is inactive: 91%. In the case of `COc1ccc(CNC(=O)c2cnc3sc(N4CCOCC4)nn3c2=O)cc1` it was inactive: 152%; in that of `CC(C)(C)OC(=O)N1CCN(c2ccc(NC(=O)c3cc4ccccc4oc3=O)cc2)CC1`, inactive: 104%.

Turning to `Fc1ccc(-n2ncc3c(NC4CCCCCC4)ncnc32)cc1`, the survival was inactive: 76%.

As for `C/C(=N/OCC(=O)Nc1sc2c(c1C#N)CCCC2)c1cccs1`, the survival is inactive: 111%. In the case of `CCOC(=O)c1c(NC(=O)CCCOc2ccccc2C)sc2c1CCC(C)C2` (stereo not given) it was active: 6%; in that of `CCOc1ccc(NC(=O)CCc2c(C)nc3nc(C)nn3c2C)cc1`, inactive: 85%.

`CCOC(=O)c1c(C)oc2nc(C)nc(NCCCN3CCN(c4ccccc4)CC3)c12`: the survival is inactive: 76%. In the case of `CC(O)c1nc2cc3ccccc3cc2[nH]1` (stereo not given) it was inactive: 125%; in that of `COC(=O)C(CCSC)NC(=O)C1CCN(c2ncnc3c2nc2n3CCCCC2)CC1` (stereo not given), inactive: 69%; in that of `CCOc1ccc(C(=O)N2CCC(c3nnc(-c4ccccc4OC)o3)CC2)cc1`, inactive: 123%. Regarding `N#Cc1ccccc1CN1C(=O)c2ccccc2Sc2ccc(C(=O)OCc3ccco3)cc21`, the survival was inactive: 85%. On to `O=C(CCc1ccccc1)NCc1nc2cccnc2n1Cc1ccc(F)cc1`, for which the survival was active: -6%.

`CCNC(=O)CC1C(=O)N(c2ccc(F)cc2)C(=O)N1CCOC` (stereo not given): the survival was inactive: 80%. For the molecule `COc1ccccc1CNC(=O)c1ccc(Cn2c(SCc3ccccc3)nc3cccnc32)cc1`, the survival was active: 10%.

As to `CCOC(=O)N1CCc2c(sc3c2c(=O)n(-c2ccccc2)c(=O)n3CC(=O)Nc2ccc(OC)cc2OC)C1`, the survival is inactive: 74%. As to `Cn1c(N)c(C#N)c2c(c1=S)CCCC2`, the survival is inactive: 98%. Consider `COc1ccc(NC(=O)CN2CCN(Cc3ccccc3)S2(=O)=O)c(OC)c1`, for which the survival is inactive: 128%. As to `CCOc1ccc(OCC)c(NC(=O)c2cc(S(=O)(=O)N3CCCC3)cn2C)c1`, the survival is inactive: 87%. In the case of `CCC(Sc1nc2ncccc2[nH]1)C(=O)Nc1ccccc1F` (stereo not given) it was inactive: 121%; in that of `O=C(O)CNC(=O)OCc1ccccc1`, inactive: 98%; in that of `COc1ccc2c(CNCc3cccs3)c(C(=O)O)n(Cc3ccccc3C)c2c1`, inactive: 97%.

Regarding `COc1cc(OC)c(N(C)C(=O)c2cc3c(s2)-c2ccccc2OC3)cc1Cl`, the survival was inactive: 73%.

On to `O=C(OCC1CCCO1)c1ccc2c(c1)N(Cc1ccc(F)cc1)C(=O)c1ccccc1S2(=O)=O` (stereo not given), for which the survival was inactive: 70%. In the case of `Cc1ccc(Cl)cc1NC(=O)N1CCC(CN2CCc3ccccc3C2)CC1` it was inactive: 82%; in that of `CCC(=O)NCc1nc2ccccc2n1Cc1ccccc1`, inactive: 106%; in that of `CSC1=C(C#N)C(c2ccc(Cl)cc2)CC(=O)N1` (stereo not given), inactive: 106%. In the case of `Cc1ccc(S(=O)(=O)N2CCCc3cc(NC(=O)c4cccc(Cl)c4)ccc32)cc1` it was inactive: 72%; in that of `CCOc1cc(CNc2ccc(O)cc2)cc(Cl)c1OCc1ccccc1`, active: -5%; in that of `CCCCOc1ccc(C(=O)Nc2ccc3c(c2)N(C(C)=O)CCC3)cc1`, inactive: 94%. With `Cn1cccc1-c1cc2n(n1)CCC(=O)N2CC(=O)Nc1ccc(F)cc1Cl` the figure was inactive: 63%; with `COCCCNc1nc2c(-c3cccc(Br)c3)nnn2c2ccccc12`, inactive: 92%. `Cc1c(NC(=O)Cc2ccccc2)cccc1-c1nc2cccnc2s1`: the survival was inactive: 84%. With `CCOc1ccc(NC(=O)c2cc3nc(-c4ccc(OC)cc4)cc(C(F)(F)F)n3n2)cc1` the figure was inactive: 144%; with `Cn1nc(-c2ccccc2F)c2cc(C(=O)N3CCN(c4ccccc4F)CC3)sc21`, inactive: 25%; with `COC(=O)c1ccc2c(=O)n(CCCCCC(=O)N3CCN(c4cccc(C)c4C)CC3)c(=O)[nH]c2c1`, inactive: 97%.

`CN1CCN(C(=O)/C(=C/c2cccs2)NC(=O)c2cccs2)CC1`: the survival was inactive: 106%. In the case of `CC1(C)CC(=O)C=C(NCC2CCNCC2)C1` it was inactive: 99%; in that of `CCS(=O)(=O)N1CCc2cc(C(=O)NCc3ccc(C)cc3)ccc21`, inactive: 88%; in that of `O=C(CSc1nc2c([nH]c3ccccc32)c(=O)n1-c1ccc(F)cc1)Nc1ccc2c(c1)OCCO2`, inactive: 82%. Regarding `N#CCN(CC#N)C(=O)c1cc(-c2ccccc2)nc2ccccc12`, the survival is inactive: 121%. With `Cc1ccc(S(=O)(=O)N(CC(O)Cn2c3ccccc3c3ccccc32)c2cccc(C(=O)NCCO)c2)cc1` (stereo not given) the figure was inactive: 60%; with `CCC(Cn1nnc2ccccc2c1=O)NC(=O)Nc1ccccc1Cl` (stereo not given), inactive: 89%. In the case of `CCOC(=O)c1nnn(-c2nonc2N)c1-c1ccccc1` it was inactive: 119%; in that of `Cc1cccc(-c2cc(-c3ccccc3)nc(SCC(=O)Nc3ccccc3)c2C#N)c1`, inactive: 94%; in that of `Cc1c(C(=O)NCc2ccc(Cl)cc2)sc2nc3n(c(=O)c12)CCC3`, inactive: 101%. In the case of `Cc1ccc(NC(=O)CC(c2ccc(F)cc2)N2Cc3ccccc3C2=O)cc1C` (stereo not given) it was inactive: 88%; in that of `COCCNC(=O)CN1C(=O)CCn2nc(-c3cn(C)c4ccccc34)cc21`, inactive: 64%; in that of `CCOC(=O)N1CCN(CCC(=O)Nc2cccc(F)c2)CC1`, inactive: 74%. For the molecule `Cc1c(C(=O)O)oc2c1-c1nn(Cc3ccccc3Cl)cc1CC2`, the survival is inactive: 68%. Consider `COc1cc([C@@H]2Nc3c(F)cccc3[C@@H]3C=CC[C@@H]32)cc(Br)c1OC`, for which the survival was inactive: 69%.

As for `CCc1ccccc1NC(=O)c1ccc(F)c(S(=O)(=O)N2CCN(c3ccccc3OC)CC2)c1`, the survival was inactive: 67%. For the molecule `COc1ccc2c(Sc3ccc(C)cc3)c(C(=O)NC(C)c3ccccc3)[nH]c2c1` (stereo not given), the survival was inactive: 89%. In the case of `CCc1ccc(C(=O)c2cn(CC(=O)NCc3ccc(C)cc3)c3nc(C)ccc3c2=O)cc1` it was inactive: 120%; in that of `Cc1ccc(C(=O)N(CC#N)CC#N)cc1`, inactive: 101%.

Regarding `Fc1ccccc1CSC1=NCCN1`, the survival is inactive: 105%.

Turning to `Cc1ccc(Sc2ccc(N3CCC(C(=O)Nc4ccc(Cl)cc4)CC3)nn2)cc1`, the survival is inactive: 76%. In the case of `Cc1ccc(N2C(=O)C(CC(=O)Nc3ccc(F)cc3)N(Cc3ccc4c(c3)OCO4)C2=O)cc1` (stereo not given) it was inactive: 80%. In the case of `Cc1ccc(CNC(=O)c2ccc3c(c2)NC(=O)C(CS(=O)(=O)Cc2cccc(F)c2)N3)cc1` (stereo not given) it was inactive: 117%; in that of `CC(=O)c1ccc(NC(=O)c2cc3c(=O)oc4ccc(C)cc4c3s2)cc1`, inactive: 119%. As to `CCOC(=O)CCNC(=O)N1CCN(S(=O)(=O)c2ccc3c(ccn3C)c2)CC1`, the survival was inactive: 113%. Turning to `CCc1nn(CC(=O)NCCCc2ccccc2)c(=O)c2cc3cc(F)ccc3n12`, the survival was inactive: 96%. As for `Cc1ccc(CNC(=O)Cn2c(-c3cccs3)cc3cc(Cl)ccc32)cc1`, the survival was inactive: 85%. As to `O=C(CSCn1nnc2c(=O)[nH]c(Cc3ccc(F)cc3)nc21)Nc1ccccc1`, the survival was inactive: 81%. With `COc1ccc(NC(=O)C2=CC(c3ccc4c(c3)OCO4)=NS(=O)(=O)N2C)cc1OC` the figure was inactive: 83%; with `O=S(=O)(c1ccc(Cl)cc1)c1nc(-c2ccccc2F)oc1NCc1ccccc1`, inactive: 83%. With `Cc1cccc(N2C(=O)C(CC(=O)Nc3cccc(F)c3)N(CCc3ccncc3)C2=O)c1` (stereo not given) the figure was inactive: 84%; with `Cc1ccc(C(=O)Nc2ccc(S(=O)(=O)N(Cc3ccccc3)c3ccccc3)cc2)cc1`, inactive: 77%. Take `O=C(CSCc1ccccc1Cl)N/N=C/c1ccco1`: the survival is inactive: 105%. In the case of `CCC(C)NC(=O)C1CCN(Cc2cc(OC)ccc2OC)CC1` (stereo not given) it was inactive: 104%; in that of `Cc1cc(F)ccc1S(=O)(=O)Nc1cc2c(C(=O)O)c(C)oc2c2ccccc12`, inactive: 51%; in that of `Cc1cc(N2CCN(c3cc(Cl)ccc3C)CC2)n2nc(-c3ccccc3)nc2n1`, inactive: 83%.
